In the supplement of paper PMC12217912:
The other results are listed elsewhere or left out. The full chains were built here from the parent and the listed change. Inactive controls read about 0.05.

B1: TEV protease; numbered along this chain (parent)
chain: MGESLFKGPRDYNPISSSICHLTNESDGHTTSLYGIGFGPFIITNKHLFRRNNGTLVVQSLHGVFKVKDTTTLQQHLVDGRDMIIIRMPKDFPPFPQKLKFREPQREERICLVTTNFQTKSMSSMVSDTSCTFPSGDGIFWKHWIQTKDGQCGSPLVSTRDGFIVGIHSASNFTNTNNYFTSVPKNFMELLTNQEAQQWVSGWRLNADSVLWGGHKVFMVKPEEPFQPVKEATQL

Variants of: B1
Assay: raw area under fraction-flipped curve 0-4 h after induction (AUC4h, not background-subtracted), DNA-recorder readout of cleavage of the substrate (dimensionless); higher = more cleavage of the substrate by the protease variant
Conditions: temperature: 34 °C; time window: 0-4 h after rhamnose induction
Procedure: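 In vivo DNA recorder in E. coli TOP10(DE3) ΔrhaA at 34 °C. Each TEVp single-site mutant (parent TEVp 0) is paired with a single-site variant of the 7-mer TEVs (canonical ENLYFQ|S). The substrate sits between flexible linkers in a Bxb1-sfGFP-TEVs-SsrA fusion, so cleavage stabilises Bxb1 and speeds flipping of a recombination array, read by NGS. The value is the raw area under the fraction-flipped curve over 0-4 h after rhamnose induction (AUC4h), with ≥20 reads per time point. It is not background-subtracted; inactive controls average about 0.047.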
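Note: Bxb1 expression induced with 0.2% (w/v) L-rhamnose at OD600 near 0.5, cultures sampled hourly, flipped fraction per protease–substrate barcode pair counted by paired-end Illumina sequencing.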

Variant | area with substrate ENAYFQS | area with substrate ENCYFQS | area with substrate ENDYFQS | area with substrate ENEYFQS | area with substrate ENFYFQS | area with substrate ENHYFQS | area with substrate ENIYFQS | area with substrate ENMYFQS | area with substrate ENQYFQS | area with substrate ENRYFQS | area with substrate ENSYFQS | area with substrate ENVYFQS | area with substrate ENYYFQS | area with substrate ENKYFQS | area with substrate ENNYFQS | area with substrate ENTYFQS | area with substrate ENGYFQS | area with substrate ENWYFQS | area with substrate ENPYFQS
P225D | 0.0485 | 0.0637 | 0.0605 | 0.0435 | 0.0667 | 0.0589 | 0.119 | 0.0657 | 0.0549 | 0.0599 | 0.116 | 0.0773 | 0.0566 |  |  |  |  |  | 
D82R | 0.0521 |  |  |  |  |  |  |  |  |  | 0.0724 |  |  | 0.0599 | 0.0663 | 0.0512 |  |  | 
S124A | 0.0723 | 0.0886 | 0.0613 | 0.0672 |  |  |  | 0.0626 | 0.0424 | 0.0594 | 0.0568 |  | 0.0534 |  |  | 0.0599 | 0.0643 | 0.0567 | 
S130W | 0.0749 | 0.0631 | 0.0614 | 0.0608 | 0.0542 | 0.0308 | 0.07 | 0.0567 | 0.0575 | 0.0626 | 0.0624 | 0.0622 |  |  | 0.0622 |  | 0.0702 | 0.0573 | 
K148W | 0.0627 | 0.0593 | 0.0617 | 0.0556 | 0.0985 | 0.0635 | 0.0976 |  | 0.0523 | 0.0667 | 0.0675 | 0.0499 | 0.0687 | 0.0656 | 0.0638 | 0.0655 | 0.0633 | 0.0532 | 0.0458
F92Y | 0.0519 | 0.0485 | 0.0588 | 0.0634 | 0.0668 | 0.0428 | 0.155 |  | 0.065 |  | 0.0507 | 0.0782 | 0.0614 |  |  | 0.0521 | 0.0593 |  | 
N52D | 0.0643 | 0.034 | 0.104 | 0.0635 | 0.0678 | 0.0663 | 0.0689 |  | 0.0608 | 0.0595 | 0.054 | 0.0708 |  |  | 0.058 | 0.057 | 0.0583 |  | 
N172E | 0.0582 |  | 0.0616 |  |  |  | 0.0549 |  |  | 0.0413 | 0.0664 |  | 0.0593 |  | 0.0514 | 0.0647 | 0.0625 | 0.0669 | 
V217D | 0.0636 | 0.0524 | 0.0602 |  | 0.055 |  |  |  | 0.0586 | 0.0559 | 0.0638 | 0.0463 |  | 0.0549 | 0.0502 | 0.0623 |  |  | 0.0495
F65M | 0.0707 | 0.0633 | 0.062 | 0.0701 | 0.0416 | 0.0801 | 0.1 | 0.0918 | 0.0603 | 0.0433 | 0.0659 | 0.0561 |  | 0.0859 |  | 0.0578 | 0.0606 | 0.0706 | 0.0559
K142D | 0.0557 | 0.0667 | 0.0688 | 0.0593 | 0.0579 | 0.0478 | 0.087 | 0.0541 | 0.0555 |  | 0.0732 | 0.0884 | 0.0688 | 0.078 |  | 0.0705 | 0.0368 |  | 0.0677
T70G | 0.0651 | 0.0755 | 0.058 |  | 0.0903 | 0.0546 |  |  | 0.0659 |  |  | 0.0661 |  | 0.0467 | 0.0629 |  | 0.0457 |  | 
A196E | 0.0543 | 0.0647 | 0.0659 | 0.0666 |  | 0.0692 |  |  | 0.051 | 0.0533 | 0.0632 | 0.0748 | 0.0469 | 0.0426 | 0.0581 | 0.0631 | 0.045 | 0.0643 | 0.0657
T192A | 0.0677 |  | 0.0593 | 0.0779 | 0.0438 |  | 0.105 |  | 0.0652 | 0.065 |  |  |  | 0.0708 | 0.0697 |  | 0.0585 | 0.0682 | 0.0545
T192F | 0.0682 | 0.0594 | 0.0575 | 0.0427 | 0.063 | 0.0474 | 0.1 | 0.0766 |  |  |  | 0.0737 |  | 0.0571 | 0.0592 | 0.0702 | 0.0583 | 0.0449 | 0.0477
N206S | 0.0792 | 0.0733 | 0.0577 | 0.0477 |  | 0.057 |  |  | 0.0533 | 0.0673 | 0.0598 | 0.0688 |  |  |  | 0.0703 | 0.0471 |  | 0.0726
T23H | 0.0695 | 0.0724 |  | 0.068 | 0.0516 | 0.0551 |  | 0.0731 | 0.0636 | 0.0364 | 0.081 | 0.0738 | 0.0594 | 0.0609 | 0.0371 |  | 0.0539 |  | 0.0568
T23V | 0.0625 |  | 0.0621 | 0.0617 |  | 0.0607 | 0.103 | 0.083 | 0.0643 | 0.0341 | 0.0704 | 0.0837 | 0.0626 |  | 0.0647 |  | 0.0431 |  | 0.063
H47P | 0.0524 | 0.0631 | 0.0714 |  | 0.0695 | 0.0593 |  |  | 0.0606 |  | 0.0665 | 0.0692 | 0.144 | 0.059 | 0.0596 |  | 0.0691 | 0.0482 | 0.0568
V113Q | 0.0573 | 0.0621 | 0.0721 | 0.0594 | 0.0592 | 0.064 | 0.0699 | 0.062 | 0.0554 | 0.0448 | 0.0521 |  |  |  | 0.0562 | 0.0666 | 0.0436 | 0.0541 | 0.0495
N24M | 0.0536 | 0.0657 | 0.0704 | 0.0406 |  |  | 0.165 |  | 0.0535 | 0.0606 | 0.0585 |  |  | 0.0568 | 0.0586 |  |  | 0.059 | 
Q118V | 0.0653 |  |  |  |  | 0.105 |  |  |  |  | 0.0386 |  |  | 0.0755 | 0.065 | 0.0659 |  | 0.0577 | 
V126E | 0.0633 |  | 0.0656 | 0.0706 |  | 0.0613 |  | 0.0893 | 0.0618 | 0.0532 | 0.0626 | 0.0747 |  | 0.0569 |  | 0.0668 | 0.0711 |  | 0.0461
E103H | 0.0483 | 0.0589 | 0.0577 | 0.0518 | 0.0603 |  | 0.0933 | 0.0679 | 0.0597 | 0.0705 | 0.0463 |  | 0.0647 | 0.0586 | 0.0568 |  | 0.0685 |  | 0.0683
I15H | 0.0765 |  | 0.0524 | 0.064 | 0.0545 |  | 0.155 | 0.112 | 0.0515 | 0.0718 | 0.0585 | 0.0752 |  |  | 0.0684 | 0.0744 |  |  | 0.0671
I19N | 0.0475 | 0.0538 | 0.0507 | 0.0558 | 0.0456 | 0.0572 |  | 0.0618 | 0.052 | 0.0519 | 0.0547 |  | 0.0523 |  |  | 0.0464 | 0.046 |  | 0.0569
I110S | 0.0556 |  | 0.0585 |  |  | 0.0676 |  | 0.0439 | 0.0594 | 0.0376 | 0.0643 | 0.0551 | 0.0355 |  | 0.0661 | 0.0503 | 0.0568 | 0.0485 | 
